No constants are given. Whether binding was seen depends on the method and setting. For some assays here: In cells and extracts the contact can be indirect. Some results given as binding are weak or reduced against the parent protein; the word gives no strength. For some assays here: Tags and fused reporters may be left off the sequences shown.
T1: Vps8-TAP (full-length Vps8, C-terminal TAP tag) (yeast (genomic locus of BY4741/BY4733 strains)) (UniProt P39702)
T1 sequence: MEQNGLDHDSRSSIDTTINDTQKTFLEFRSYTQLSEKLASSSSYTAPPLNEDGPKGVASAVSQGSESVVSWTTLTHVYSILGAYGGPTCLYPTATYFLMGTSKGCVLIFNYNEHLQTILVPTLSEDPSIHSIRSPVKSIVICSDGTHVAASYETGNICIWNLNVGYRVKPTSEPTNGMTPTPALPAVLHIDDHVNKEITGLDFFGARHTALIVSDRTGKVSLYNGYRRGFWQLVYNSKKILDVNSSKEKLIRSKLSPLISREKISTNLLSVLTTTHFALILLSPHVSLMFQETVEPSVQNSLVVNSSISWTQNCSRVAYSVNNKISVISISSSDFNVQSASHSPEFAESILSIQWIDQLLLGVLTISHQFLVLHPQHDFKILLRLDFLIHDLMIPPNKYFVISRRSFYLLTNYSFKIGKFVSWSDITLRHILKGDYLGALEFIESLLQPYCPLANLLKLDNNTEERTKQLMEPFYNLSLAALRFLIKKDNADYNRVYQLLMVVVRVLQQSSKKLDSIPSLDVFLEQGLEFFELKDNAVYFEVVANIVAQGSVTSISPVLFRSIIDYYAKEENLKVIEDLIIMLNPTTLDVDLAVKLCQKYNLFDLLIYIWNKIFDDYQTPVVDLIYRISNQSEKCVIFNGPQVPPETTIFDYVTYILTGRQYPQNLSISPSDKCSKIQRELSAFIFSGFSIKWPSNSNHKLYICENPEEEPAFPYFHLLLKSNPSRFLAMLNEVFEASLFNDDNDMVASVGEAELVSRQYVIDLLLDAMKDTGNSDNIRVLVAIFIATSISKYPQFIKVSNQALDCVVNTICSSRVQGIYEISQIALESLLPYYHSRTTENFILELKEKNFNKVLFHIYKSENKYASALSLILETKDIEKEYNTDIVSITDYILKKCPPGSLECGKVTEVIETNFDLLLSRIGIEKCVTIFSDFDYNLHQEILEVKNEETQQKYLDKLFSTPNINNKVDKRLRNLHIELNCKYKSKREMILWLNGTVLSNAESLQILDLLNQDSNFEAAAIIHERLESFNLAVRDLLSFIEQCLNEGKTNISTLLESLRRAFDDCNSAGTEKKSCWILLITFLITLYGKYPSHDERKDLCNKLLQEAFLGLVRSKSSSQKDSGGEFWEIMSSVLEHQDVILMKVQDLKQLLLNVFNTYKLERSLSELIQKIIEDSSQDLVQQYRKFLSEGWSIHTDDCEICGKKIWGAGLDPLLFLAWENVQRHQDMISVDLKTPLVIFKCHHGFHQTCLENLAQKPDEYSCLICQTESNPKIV

T2: Vps8ΔN-TAP (C-terminal domain of Vps8, from residue 451, C-terminal TAP tag) (yeast (genomic locus of BY4741/BY4733 strains)) (UniProt P39702)
T2 sequence: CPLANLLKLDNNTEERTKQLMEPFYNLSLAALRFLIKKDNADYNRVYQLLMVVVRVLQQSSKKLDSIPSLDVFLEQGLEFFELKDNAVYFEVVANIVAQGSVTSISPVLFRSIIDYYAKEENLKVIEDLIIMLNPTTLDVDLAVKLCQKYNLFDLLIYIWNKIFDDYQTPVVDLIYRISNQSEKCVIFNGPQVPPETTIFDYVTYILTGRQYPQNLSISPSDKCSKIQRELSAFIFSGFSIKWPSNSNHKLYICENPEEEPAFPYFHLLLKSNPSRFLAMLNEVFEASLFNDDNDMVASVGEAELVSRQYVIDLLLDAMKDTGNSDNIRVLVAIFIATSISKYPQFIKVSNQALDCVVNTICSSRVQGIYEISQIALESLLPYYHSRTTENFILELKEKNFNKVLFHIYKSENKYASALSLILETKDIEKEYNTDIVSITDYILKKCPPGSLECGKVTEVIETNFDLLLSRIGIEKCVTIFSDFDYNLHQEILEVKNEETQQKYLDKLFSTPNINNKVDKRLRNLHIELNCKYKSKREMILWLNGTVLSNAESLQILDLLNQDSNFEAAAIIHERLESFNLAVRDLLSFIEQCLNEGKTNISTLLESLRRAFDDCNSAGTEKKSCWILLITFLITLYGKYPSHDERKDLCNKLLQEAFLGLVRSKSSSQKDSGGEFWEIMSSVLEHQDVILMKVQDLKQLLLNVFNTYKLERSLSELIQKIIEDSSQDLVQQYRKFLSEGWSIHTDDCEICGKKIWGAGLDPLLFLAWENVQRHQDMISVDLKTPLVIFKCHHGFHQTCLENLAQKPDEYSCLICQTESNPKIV

T3: Vps21 (yeast two-hybrid bait) (yeast) (UniProt P36017)
T3 sequence: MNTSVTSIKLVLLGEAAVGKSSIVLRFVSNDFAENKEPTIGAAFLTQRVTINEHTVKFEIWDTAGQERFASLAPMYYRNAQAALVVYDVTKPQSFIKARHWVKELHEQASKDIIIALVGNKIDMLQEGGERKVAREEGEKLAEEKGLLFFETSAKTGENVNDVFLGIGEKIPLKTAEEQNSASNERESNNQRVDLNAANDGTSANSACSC

B1: Vps3ΔN-3HA (Vps3 from residue 427, C-terminal 3xHA tag) (domain or fragment, UniProt P23643 427-1011)
chain: EFKEKIFNKLRLEPLTHSDNKFRIERERAFVEESYEEKTSLIVYNNLGIHLLVPTPMVLRFTSCEESEIDNIEDQLKKLAKKDLTKFEHIEAKYLMSLLLFLMTLHYDHIEDEVMKKWCDFSDKVDIRILFYMFGWKVYSEIWCFHGLINIVERLKSLKLTNKCENILKMLLMMKNELKKKNKTGLLTNDFDDIMKTIDITLFKLRLEKKETITVDMFERESYDEIIREINLHDDKLPRIELLIEIYKEKGEYLKALNLLREAGDYISLVSFIEENLKKLPEDYIKERIADDLLLTLKQGDENTEECAIKKVLKILDMACINKNDFLNKIPAEETSLKVSFIEQLGVQNSNDSKFLFNYYLAKLREIINQSNIWSILGDFIKEYKDDFAYDKTDITNFIHIKLKHSLQCENFSKYYEKCENLKSENEKDDEFINFTFDEISKIDKEHILTLLFFPNELTNWVSSEELLKIYLSFNDFRSVEKYIGKQNLVAVMKQYLDISSLNYSVELVTNLLQRNFELLDDTDIQLKILETIPSVFPVQTISELLLKVLIKYQEKKEESNLRKCLLKNQISISDELSRNFDSQG
B2: Vps8, wild type (yeast two-hybrid prey) (protein, UniProt P39702 1-1274)
chain: T1 sequence
B3: Vps8ΔN (yeast two-hybrid prey) (domain or fragment, UniProt P39702 451-1274)
chain: T2 sequence
B4: Vps8ΔC (yeast two-hybrid prey) (domain or fragment, UniProt P39702 1-450)
chain: MEQNGLDHDSRSSIDTTINDTQKTFLEFRSYTQLSEKLASSSSYTAPPLNEDGPKGVASAVSQGSESVVSWTTLTHVYSILGAYGGPTCLYPTATYFLMGTSKGCVLIFNYNEHLQTILVPTLSEDPSIHSIRSPVKSIVICSDGTHVAASYETGNICIWNLNVGYRVKPTSEPTNGMTPTPALPAVLHIDDHVNKEITGLDFFGARHTALIVSDRTGKVSLYNGYRRGFWQLVYNSKKILDVNSSKEKLIRSKLSPLISREKISTNLLSVLTTTHFALILLSPHVSLMFQETVEPSVQNSLVVNSSISWTQNCSRVAYSVNNKISVISISSSDFNVQSASHSPEFAESILSIQWIDQLLLGVLTISHQFLVLHPQHDFKILLRLDFLIHDLMIPPNKYFVISRRSFYLLTNYSFKIGKFVSWSDITLRHILKGDYLGALEFIESLLQPY

What was measured:
[1] = target: T1, Vps8-TAP (full-length Vps8, C-terminal TAP tag) (yeast (genomic locus of BY4741/BY4733 strains)); experiment: co-IP; small-scale TAP purification: C-terminally TAP-tagged Vps8 or Vps3 (full-length or truncated) captured from yeast lysate (50 mM HEPES/KOH pH 7.4, 300 mM NaCl, 0.15% NP-40, 2 mM MgCl2, 1 mM DTT) on IgG beads, 1.5 h at 4°C; eluted with glycine pH 2.5 or TEV protease; Western blot with anti-Cbp, anti-HA, anti-Vps11; also with overproduced Vps8ΔN and from vps21Δ and vps21Δ ypt52Δ ypt53Δ ypt7Δ strains
[2] = target: T2, Vps8ΔN-TAP (C-terminal domain of Vps8, from residue 451, C-terminal TAP tag) (yeast (genomic locus of BY4741/BY4733 strains)); experiment: as above
[3] = target: T3, Vps21 (yeast two-hybrid bait) (yeast); experiment: two-hybrid; Vps21 as bait, Vps8 constructs as preys (vectors pACT2 and pFBT9) in strain PJ69-4A; growth on TDO (-Leu -Trp -His) and QDO (also -Ade) plates; QDO strong, TDO only weak interaction

| Binder | binding [1] | binding [2] | binding [3] |
| --- | --- | --- | --- |
| B1 | binds | binds |  |
| B2 |  |  | binds |
| B3 |  |  | binds weakly |
| B4 |  |  | no binding |
